Results on 167 variants are retold here after the RNAGym collection of RNA variant scans (doi:10.7554/elife.90254).

B1: LINE1-mini (parent)
chain: GGCAGAGCUCAACACAGCGUGGCAAAGUGGCUGUGGCUAGACUGCC

The source gives no read counts; variants with many changes may rest on few reads.

The variants in this series derive from B1. The series is described as follows: self-cleavage, relative activity (ratio to wild type); higher = more cleavage; in vitro, sequencing; the parent is a self-cleaving ribozyme.
Consider A4C A11C G30C, for which the self-cleavage is 0.04.
Consider A4C C37U A41G, for which the self-cleavage turned out to be 0.12.
The value for A4C A24U G29C C31A was 0.08; that for A4C G22U C23A was 0.08.
To A4C G27C U28C C31A belongs 0.02.
The value for C3U U9C A24U G33U was 0.03; that for A4C G5C A14C A26G was 0.05.
As to A4C C10U A11C G30U A39U, the self-cleavage turned out to be 0.01.
On to C3U C13U C15A, for which the self-cleavage was found to be 0.06.
To A4G A12C G19U U20A A39G C45A belongs 0.
To A4C G5C C10A belongs 0.03; to A4C U9C A11C G22C A26C, 0.03.
With C3U G7A C10U G19C C45G, the self-cleavage is 0.12.
On to C3U U20C G29U G35C C37U C46A, for which the self-cleavage was determined as 0.02.
With C3U G7A C46U, the self-cleavage is 0.15.
C3U G30U C46A: the self-cleavage came to 0.02.
To A4C A14U C31A G44C belongs 0.03.
For A4C A6G U9G C31A G33C U38A A39G, the self-cleavage is 0.47.
For the variant C3U U9C U28G G36C, the self-cleavage amounted to 0.02.
The value for C3U U32A C46A was 0.11; that for C3U G5U A39G was 0.76.
The value for C3U U9A G19A C42A was 0.04; that for C3U C13A A16G A25U A41G was 0.02; that for C3U C18G G22C C45A was 0.06.
To A4C A6C U9A C37U belongs 0.04; to A4C A24G C37G, 0.38; to A4C U32C U34A, 0.09.
Regarding A4C U43G C45A, the self-cleavage is 0.06.
A4C C8U C18G G21C U34C: the self-cleavage stood at 0.07.
For C3U C23G G35U A39G, the self-cleavage was 0.06.
On to A4C C8G C31U A39G, for which the self-cleavage was 0.11.
As for A4C C15G A16C U43A, the self-cleavage was determined as 0.01.
As for C3U C13A U28G U34G, the self-cleavage came out at 0.01.
To C3U C15G A24G belongs 0.04; to A4C U20A C23U, 0.06.
The value for C3U G7C G21U U43C C46A was 0.13; that for A4C G5U U20A was 0.06; that for A4G A6G A16U G30U U38C was 0.
On to A4C G35U U38G G44A, for which the self-cleavage worked out at 0.03.
A4C A16C G19U C31A U43C: the self-cleavage is 0.01.
To C3U U9A G44A belongs 0.05.
On to C3U G7U A41G, for which the self-cleavage amounted to 0.03.
The value for C3U U32C A39U was 0.18.
To A4C C8G A26C belongs 0.28; to A4C C10A U28A U32C C46G, 0.04.
As for A4C G21A C23U, the self-cleavage worked out at 0.24.
As for C3U G7A C13A G21U G30C G35C U38C, the self-cleavage was found to be 0.28.
The value for C3U C31A C46A was 0.04.
Take C3U C42U C46A: the self-cleavage turned out to be 0.05.
To C3U U32A C42G belongs 0.16.
The value for C3U G22A A24G A39C was 0.03.
The value for A4C A25C G30U C42U U43A was 0.67; that for A4C G7C C15A G19U C23G G33A C46A was 0.02; that for A4G A12G A14C U20A U28C was 0.02.
Consider C3U G7C C37A, for which the self-cleavage is 0.04.
As to A4C G7C C23A U38A, the self-cleavage was found to be 0.14.
The value for A4C C10G G33U was 0.03.
The value for C3U U20G G27U G30U C46A was 0.62; that for A4C A14U A24C was 0.12.
In the case of A4C C10A C18A, the self-cleavage stood at 0.04.
With A4C C8G G21A U32G, the self-cleavage was 0.04.
As for A4C A11C A12C A26U G30C, the self-cleavage was determined as 0.02.
To A4C C15A A26C A41C belongs 0.14; to A4C A25U C37G, 0.09.
Consider A4C C8A G29C C42A, for which the self-cleavage is 0.3.
For the variant A4C A11C A24G G27U G29C C42U, the self-cleavage was found to be 0.
Consider A4C U9A G30U C42U, for which the self-cleavage came out at 0.19.
The value for C3U G5C C18A G22U A25U was 0.06; that for C3U G5C A16C A39G C42G was 0.03.
The value for C3U G19C G21A A41C was 0.05; that for A4C A11U U43C was 0.
To A4C G22U U34G C37U belongs 0.15.
For A4C A11G U28G, the self-cleavage worked out at 0.03.
To A4C C15G C18U G19U U20C belongs 0.03; to A4C C8G U32A G36U, 0.04.
The value for A4C C8A C45A was 0.42; that for A4C A6G U32G G36C was 0.03.
As for A4C C15U A16C U20C U34C, the self-cleavage turned out to be 0.04.
On to C3U G7C A16C G22C, for which the self-cleavage amounted to 0.04.
The value for C3U G22C G27A G29C U32C was 0.11; that for A4C C10G A14G U20G U43C was 0.
As for C3U C13A C23G U34C C45U, the self-cleavage came to 0.17.
As for A4C C13G A25U G36U A39U, the self-cleavage is 0.07.
Turning to C3U G5A C15U G17A, the self-cleavage turned out to be 0.09.
The value for C3U C15G C18A G21C C31A C42A was 0.04; that for C3U G7A A25U G33A was 0.09; that for A4C U20A A39U C45A was 0.02.
To A4G A11G A16U G30U belongs 0.02; to A4G A11G G21U U34G, 0.02; to A4G A12C U32A, 0.09.
With C3U C15U A26C G27A C37G G44A, the self-cleavage was 0.01.
The value for A4C C23G G29C C37G C45G was 0.03; that for C3U U20C G21C was 0.3.
For C3U C10U C45U, the self-cleavage was 0.04.
To C3U G19C U43A belongs 0.04; to C3U C31A G40U, 0.02.
The value for C3U G5A A39U C42G was 0.02; that for A4C A6C C10A G19U A39G was 0.01; that for A4C G7A A25U G35A C37A C45A was 0.14.
For C3U C10U G30C U34A, the self-cleavage came to 0.07.
In the case of A4C A16U G29C, the self-cleavage was found to be 0.28.
The value for A4C U20G C37G was 0.46; that for C3U G19U A24C was 0.44; that for C3U G17A C31A G35C G44A was 0.02.
The value for C3U U9C U38G was 0.04; that for A4C G5C U38A was 0.09.
To A4C C13A U34G A41C belongs 0.04; to A4C C15G G19A, 0.03; to A4C A11G A26U G35C, 0.02.
In the case of A4C G7C C13G, the self-cleavage was determined as 0.25.
To C3U C18A G27C G35A G44A belongs 0.01; to A4G A12C G22U U28A, 0.02.
The value for C3U U20C G40C was 0.07.
To A4C A24U C31A G33C C46G belongs 0.02; to C3U G33A G35U C37U, 0.12.
As to A4G A6U U9C C31U, the self-cleavage amounted to 0.03.
The value for A4C A25G G29C U32C G35C was 1.29.
As for C3U G5C G33A, the self-cleavage turned out to be 0.07.
The value for A4C C10A G35C U38A was 0; that for A4C A14G U34C A41C was 0.02.
On to A4C C8A C15A, for which the self-cleavage turned out to be 0.26.
The value for C3U C13A G21A G36A was 1.88; that for C3U G30C C31G U32G was 0.04.
As to C3U G21U G22A C42A, the self-cleavage worked out at 0.09.
To C3U U9C U28G G30U G35C C37A G40C belongs 0.03; to A4C A25C G29U C31U, 0.03; to C3U G27A U38C, 0.06.
The value for A4C U9A C18U U28A G33U was 0.09; that for C3U C13A G35A U43C was 0.01; that for A4C A14C G35A U38G C42A was 0.03.
The value for C3U C18G G27U G33C was 0.01; that for A4G A11U G29C was 0.03.
Consider A4C G19C A25C C31A, for which the self-cleavage is 0.01.
As for C3U C10U C46A, the self-cleavage turned out to be 0.05.
For the variant A4C G17A U34A, the self-cleavage was 0.02.
To A4C G17C G35C belongs 0.3.
Take C3U U32G G36A C42U: the self-cleavage was found to be 0.05.
To A4C U9C G44A belongs 0.03; to A4C A14U G40U, 0.03; to A4C C10A C13U, 0.01.
Regarding A4C A6U C15A U34A, the self-cleavage came out at 0.11.
As for C3U U9C G21U C46U, the self-cleavage came to 0.01.
Regarding C3U G17A G30U, the self-cleavage worked out at 0.12.
The value for C3U U38A A39G was 0.15; that for A4C G35A G36A was 0.04.
As to A4C A12G G36A, the self-cleavage came to 0.1.
To A4C C10G G21C C23G G29U G35U belongs 0.02; to A4C A11G A12C G19A C23A A24G G30C U34C, 0.01; to A4G A6G G40C C46U, 0.03.
To A4G A11G C46G belongs 0.03.
The value for A4C A6U C8U C13G G19A G33U was 0.17; that for A4C G7C A25U G33U G40A was 0.22.
For the variant C3U G17C G19U A41U, the self-cleavage came to 0.08.
Take A4G A6G A12C C13U G33U C42G: the self-cleavage was 0.05.
To A4C A11U A25C C37G belongs 0.01; to C3U G36U C37G, 0.03.
C3U G36U C37A: the self-cleavage was 0.13.
To C3U G5U G17C U20A G27A A39C C46U belongs 0.04; to C3U C10G C15U C46G, 0.03; to C3U U38A G44A, 0.48.
To A4C C15A G40C belongs 0.35; to C3U G5C U32G, 0.1; to C3U C23U G35U, 0.51.
Regarding A4C G27A G30U C31G C37G, the self-cleavage was 0.
The value for A4C C18A U20A G22U A41U was 0.04; that for C3U G29U A41C was 0.19.
The value for C3U C31A A39G A41G C42A C45A was 0.04.
